Laboratory results: the supplement of paper PMC10681739
± gives the standard deviation of the averaged measurements. Whole data set: some 4,000 sequences, median “arbitrary fluorescence units” near 830, cut for the highest 2% near 6,500. This part holds few or none of the hits.
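Note: Full-length recombinant human RUNX1 bound to double-stranded DNA microarray spots, detected with an Alexa488-labelled secondary antibody after the anti-RUNX1 primary, read as scanned spot fluorescence.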

Each sequence was assayed against RUNX1 (UniProt Q01196) (assay: RUNX1 binding intensity (PBM fluorescence), RUNX1 alone (arbitrary fluorescence units); higher = stronger binding). Conditions: RUNX1 concentration 2 nM; ETS1 concentration 0 nM.
Chain of UniProt Q01196 (Q01196 whole entry): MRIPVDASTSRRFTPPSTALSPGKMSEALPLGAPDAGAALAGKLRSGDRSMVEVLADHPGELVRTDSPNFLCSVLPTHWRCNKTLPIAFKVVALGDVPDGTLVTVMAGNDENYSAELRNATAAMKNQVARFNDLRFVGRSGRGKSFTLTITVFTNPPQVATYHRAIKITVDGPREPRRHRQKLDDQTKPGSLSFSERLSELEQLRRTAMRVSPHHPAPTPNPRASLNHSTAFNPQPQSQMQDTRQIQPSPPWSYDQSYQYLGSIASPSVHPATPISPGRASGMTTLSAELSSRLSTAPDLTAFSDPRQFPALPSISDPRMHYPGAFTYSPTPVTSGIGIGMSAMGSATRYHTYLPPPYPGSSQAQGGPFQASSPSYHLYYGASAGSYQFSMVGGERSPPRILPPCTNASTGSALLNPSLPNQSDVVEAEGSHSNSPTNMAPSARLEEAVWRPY
Description: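 gcPBM on 36-bp genomic-derived probes (partner site mutated) containing one RUNX1 site and no ETS1 site. Recombinant human RUNX1 (2 nM) was incubated alone or with ETS1 (25 nM) and detected by anti-RUNX1 antibody fluorescence. Values are medians over 4 replicate spots (not normalised). The probes sit in constant array flanks that are not printed.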
For AACCCAGGCTCCCTGACTCGCGGTCTTGTTATCAGT, the RUNX1 binding intensity was 778. In the case of TGGAACCGCTGCGTTAACCCAGCCCCGTAAATAACG, the RUNX1 binding intensity is reported as 827. Work on CCGTGTGCTGTGGGTTTTGGGGACAGAAAGCAAGCT yielded an RUNX1 binding intensity of 912. For TTGCTTTTTGAGGTTTGTATTTACTGTGTGAGCTGT, the RUNX1 binding intensity was 1320. With CGTTACCACCCTCTTAAAGGAGCCCATGAAGGAGGC the RUNX1 binding intensity was 988. CCCTCTGAGACACGATTTGCTTCCCACACAAGGCTA showed an RUNX1 binding intensity of 1270 ± 100. CCAGTGCAGAAACGTCCCTCCTGCCGCAGCTTTGTC showed an RUNX1 binding intensity of 913. TGGGGGCCGAAGCCTAAACCCCTCCCGCAGCCAGTC was tested, and the RUNX1 binding intensity was 752. With CTTGCGGCCTCGCGCCATGGGCAGTCTCCGCCGCCA the RUNX1 binding intensity was 774. With ACTCCCCGTGGTAACCTTGTTCATTCGCTGAAGCCC the RUNX1 binding intensity was 1190. With GGCTCGGCAAACAGCCGGCTCCGCGGTGGAACGGGA the RUNX1 binding intensity was 705. In the case of GCGTTCGGCTGGTCGTGGGCTTTCTGCGGCCGCTGA, the RUNX1 binding intensity is reported as 835. GCTCTTCACTGCCTGTGGCTCCCGCAGCGGCCGCCG gave an RUNX1 binding intensity of 1030. With AGCTGGCTGTGGTCAGGGTGGAATCAGAAAGAGAAA the RUNX1 binding intensity was 1100. TGGGAGACCACAAAGCCCAAGGCCGAAGCCATGTCA gave an RUNX1 binding intensity of 899. For GCTCAGGCTGCTGTCTGTGCACTGTTAGGTGGTTTG, the RUNX1 binding intensity was 708. For CCGCTCCCGGGACGCGAATCGCTCTGCGGCTGCGTC, the RUNX1 binding intensity was 768. CCTCCTTCGGCCACAACACGATCACTTTCGGTTGGT gave an RUNX1 binding intensity of 980. AGCGCAGCCGCAGACTCCGCTCAGATCCCCGGGTCG was tested, and the RUNX1 binding intensity was 758. With TACAGTTCCACTTGCTGTGATTTCAGTTACCCACAG the RUNX1 binding intensity was 825. Sequence AGGCAAAAGCCACAGCCACACACGATGGGGCCTCCC has an RUNX1 binding intensity of 785. For GTTGAGGTGTCCCACAAACCAAACAGGGTGTGGGGG, the RUNX1 binding intensity was 964. With CCGACCCCAGCTTGCCGGGGTTGCGGCCCTGCCTCC the RUNX1 binding intensity was 696. Sequence GCGCGGCCCGCAGCGCCACACAGATTCCCGGGCGCC has an RUNX1 binding intensity of 757. TTCAAATACCACAGCCCAATATTGGTATTGCCGAGC was tested, and the RUNX1 binding intensity was 1170. CATTTCTTCGTTCCTTGGCCCCCGCAGTGCGCCCGC was tested, and the RUNX1 binding intensity was 1650. ACGTTCGGCCCCGCACACTCAGCATTTACGGCCTCC was tested, and the RUNX1 binding intensity was 945. CCTGCGGATCACGCAAGTGGCTGCGGTCGGCGCCAT gave an RUNX1 binding intensity of 992. In the case of AACAACTGACTGGACAGAACACAGCCACAAAACACG, the RUNX1 binding intensity is reported as 1040 ± 11. With CTTAGGAATTCCCGTAGATGGTGGTCTGTGCTAAGG the RUNX1 binding intensity was 743. Work on CTCCTTTGCCCGCAGCGGCTGGTCCAGTTTACATCA yielded an RUNX1 binding intensity of 1100. Sequence TCTGCGGCCCTACCTCAGCCAAGGACCTCCTCAGAA has an RUNX1 binding intensity of 893. In the case of ACCTCTGCGGCGTCACTGGGAGCCCGACGAAAAACT, the RUNX1 binding intensity is reported as 808. GTGGATTTCACATGCTGTCCTAGCGGTATGTTTGTC gave an RUNX1 binding intensity of 733. Sequence CTCTGGCAGGGAGCTCTGAGGGCTAAACCACAAAAA has an RUNX1 binding intensity of 1560. GCCTGAGCGCAAACCCGGCGCCACCACAAGATGGCA gave an RUNX1 binding intensity of 943. CCTCAATTGCCTGGCCAGAGAAACCACTGCCTCTCA was tested, and the RUNX1 binding intensity was 1080. With GCCGCCGTTGCCTGATTGGTTGTGGGTGGCTACCTC the RUNX1 binding intensity was 764. Work on CTGTCATCTTTCTGACAGCACGCCCACAAAGGACCA yielded an RUNX1 binding intensity of 804. CTTTTTGATCTCCTCAAGCATCCCACAAATACACAG showed an RUNX1 binding intensity of 1180. In the case of TCTCCTGTGGCCACGGCTGAAAACCTACATTCCGTC, the RUNX1 binding intensity is reported as 960. GAGAAACCTCAGGCATGGCCGGGCCACCAGCAAAAC gave an RUNX1 binding intensity of 769. GGTTTGGTGGTTTGGTGGCAGCATGAAGGTAAGGGA showed an RUNX1 binding intensity of 1740. TGGCAGCAAACCACGGAGGCTTCTCGGAGGTGCAGA showed an RUNX1 binding intensity of 720. GGCGCCTCTTTGCGCCCCCGCCCACAATCGAGCGCA showed an RUNX1 binding intensity of 826. GAGGCGTTGCCGCCTCCTTTTCGCGGTTGCCTTCTC was tested, and the RUNX1 binding intensity was 988. With TGTGTCAATTCCCTATCTGTTGCGGTTGTTCACTCC the RUNX1 binding intensity was 1150. ACAACCCGAAAGTTGGCGCAGCGCGGTTGCCAATGG was tested, and the RUNX1 binding intensity was 741. CACTGCCTGTCAAAGCCAGTTCCTTAACCGCTTAGG showed an RUNX1 binding intensity of 854. GGATGGCCGAAGAGGCGGCTGAGGCCGCAGGACGTG showed an RUNX1 binding intensity of 811. ACCATTCTGTGGCTTTCTGGTTTCCATCCTTTTTGG was tested, and the RUNX1 binding intensity was 1680. Sequence TTGCGGGTCCACCTCTGCGCTTCTCCTGCCTGATCA has an RUNX1 binding intensity of 724. CTCCCACTGTGGTTGCCCCCTTGCTCTCAGTGGCAC gave an RUNX1 binding intensity of 902. For TATATGCACAGGCAGTCCCTTACAACCCACTCTGTT, the RUNX1 binding intensity was 894. Sequence CCGGCAAACACGGGAGAGCGACCGAAACCGCAATCA has an RUNX1 binding intensity of 5260. GCAGAAGAGGAACTGGTTTGCCTGTGCGGTGGGGGA was tested, and the RUNX1 binding intensity was 782. With GGCCTTGCGGCGTCTCTGCTGCTTGCGCCTTCCCGG the RUNX1 binding intensity was 763. Work on GGGCAATGTGGTCGCCAGACCATGCTGTCACTTAGG yielded an RUNX1 binding intensity of 813. Work on TGGGCTGCCTCTCCATTATCCTAATTAGGTGGTTTG yielded an RUNX1 binding intensity of 698. GACAAAGAGGCAGTCCCCAAAAACCACAATAACAGT was tested, and the RUNX1 binding intensity was 1610. Work on GAACGGTGTGGCCACGAGAGTCTAGAGGAGACCAAC yielded an RUNX1 binding intensity of 821. AATTGAGACAGGCAATGTTGGTTTGTGGTCAGGCAC showed an RUNX1 binding intensity of 1080. For CCGCGTCCTCAGCGGTCCGGCCGGGAGTCACCTGAA, the RUNX1 binding intensity was 813 ± 28. ACTCTGCGGTGTGGCCCTGAGCAAGTTCCTTCATGT was tested, and the RUNX1 binding intensity was 2750. Sequence CCAGTTCCCCCATCACTTTGAATTGTGGTTCTTCTC has an RUNX1 binding intensity of 1130. For AGTCTGTGGTAATTTGTTATGTAGCGATAGGAGGTG, the RUNX1 binding intensity was 1250. For AGTGCGGTAATGAGTCATTGTTTATAGGCAGCACCC, the RUNX1 binding intensity was 846. ACTTAGTGAAGTCTCCTTCACTTGGTTTTGCTCTTC was tested, and the RUNX1 binding intensity was 822. Work on CAGTTTACCGCACGGTGGGGCCTGTCTCCAGAATCG yielded an RUNX1 binding intensity of 1090. Sequence GCTCTGCGGCCTCGCGCCATCGTTTTCGGTGGGCAG has an RUNX1 binding intensity of 788. With GTGACGGCTATCCACCGGGCCCTGTGGTTTCCAACA the RUNX1 binding intensity was 896. Sequence ATAGACTCAGCAAGTGATTGTGGTAAGATTCTATAT has an RUNX1 binding intensity of 851. In the case of TCGCTGGGACCGCGGCTGGGCGCCCGGGGGCGGGGC, the RUNX1 binding intensity is reported as 725. CGTTCAGGGTTGCGCCTGAGCCCGCAGCACAGGACG was tested, and the RUNX1 binding intensity was 789. ACCGTGCGGTCTGCAAGCAACCCTTGCGCTCCTTCA gave an RUNX1 binding intensity of 1090. ATGGATATAAACCTCAAACAGGAGGTGATAAAGCAA showed an RUNX1 binding intensity of 772. In the case of AGCAACATGAAAGAACAGCCTGACCACAGCAGCCAC, the RUNX1 binding intensity is reported as 905. With CCGCTGTGGGAACTGGAACCTCCCTCACAGAAAGGG the RUNX1 binding intensity was 802. Sequence TCGCCTGCGGCAAACAGGCCAGATCCCCAGCCCATC has an RUNX1 binding intensity of 764. With AATGCTGAGAACCACAGGCTCACAGCATGCCCATCT the RUNX1 binding intensity was 718.
